Laboratory results taken from article PMC7507369.
These are yes or no findings as the source states them, for the method shown. In cells and extracts the contact can be indirect. Some entries that bind do so weakly or less than the wild type. For some assays here: Sequences can lack the tags named with a protein.

Chains of the proteins cited; added tags and fusions are not shown. Residues count along the entry.
UniProt Q8N884: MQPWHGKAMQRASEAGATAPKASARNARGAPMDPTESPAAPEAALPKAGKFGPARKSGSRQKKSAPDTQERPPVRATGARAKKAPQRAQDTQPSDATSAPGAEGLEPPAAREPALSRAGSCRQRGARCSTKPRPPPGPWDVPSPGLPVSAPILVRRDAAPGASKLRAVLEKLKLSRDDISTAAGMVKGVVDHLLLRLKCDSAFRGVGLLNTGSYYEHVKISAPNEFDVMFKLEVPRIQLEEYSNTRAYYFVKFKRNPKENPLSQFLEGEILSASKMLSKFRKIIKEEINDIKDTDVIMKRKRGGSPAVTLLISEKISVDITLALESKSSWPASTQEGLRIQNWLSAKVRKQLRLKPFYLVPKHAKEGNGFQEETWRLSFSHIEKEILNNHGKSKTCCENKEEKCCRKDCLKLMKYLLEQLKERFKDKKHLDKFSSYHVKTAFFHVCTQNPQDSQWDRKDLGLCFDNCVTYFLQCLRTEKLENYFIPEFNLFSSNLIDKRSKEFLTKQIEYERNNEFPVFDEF
UniProt Q96CV9: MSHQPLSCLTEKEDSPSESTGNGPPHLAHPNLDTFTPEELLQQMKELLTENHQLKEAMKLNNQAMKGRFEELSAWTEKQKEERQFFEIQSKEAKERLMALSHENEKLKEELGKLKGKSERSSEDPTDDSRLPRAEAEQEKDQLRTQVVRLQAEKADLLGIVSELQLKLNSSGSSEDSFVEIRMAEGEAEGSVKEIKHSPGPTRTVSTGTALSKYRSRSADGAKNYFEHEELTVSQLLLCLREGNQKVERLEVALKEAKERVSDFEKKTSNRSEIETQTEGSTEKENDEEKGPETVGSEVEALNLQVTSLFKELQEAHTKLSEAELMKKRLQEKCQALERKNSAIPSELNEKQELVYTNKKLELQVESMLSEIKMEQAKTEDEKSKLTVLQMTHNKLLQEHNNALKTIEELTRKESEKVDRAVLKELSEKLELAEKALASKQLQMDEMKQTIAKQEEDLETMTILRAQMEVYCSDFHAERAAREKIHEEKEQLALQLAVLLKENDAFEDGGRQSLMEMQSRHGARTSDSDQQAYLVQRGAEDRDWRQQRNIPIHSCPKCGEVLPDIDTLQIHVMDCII
UniProt Q9NPP4: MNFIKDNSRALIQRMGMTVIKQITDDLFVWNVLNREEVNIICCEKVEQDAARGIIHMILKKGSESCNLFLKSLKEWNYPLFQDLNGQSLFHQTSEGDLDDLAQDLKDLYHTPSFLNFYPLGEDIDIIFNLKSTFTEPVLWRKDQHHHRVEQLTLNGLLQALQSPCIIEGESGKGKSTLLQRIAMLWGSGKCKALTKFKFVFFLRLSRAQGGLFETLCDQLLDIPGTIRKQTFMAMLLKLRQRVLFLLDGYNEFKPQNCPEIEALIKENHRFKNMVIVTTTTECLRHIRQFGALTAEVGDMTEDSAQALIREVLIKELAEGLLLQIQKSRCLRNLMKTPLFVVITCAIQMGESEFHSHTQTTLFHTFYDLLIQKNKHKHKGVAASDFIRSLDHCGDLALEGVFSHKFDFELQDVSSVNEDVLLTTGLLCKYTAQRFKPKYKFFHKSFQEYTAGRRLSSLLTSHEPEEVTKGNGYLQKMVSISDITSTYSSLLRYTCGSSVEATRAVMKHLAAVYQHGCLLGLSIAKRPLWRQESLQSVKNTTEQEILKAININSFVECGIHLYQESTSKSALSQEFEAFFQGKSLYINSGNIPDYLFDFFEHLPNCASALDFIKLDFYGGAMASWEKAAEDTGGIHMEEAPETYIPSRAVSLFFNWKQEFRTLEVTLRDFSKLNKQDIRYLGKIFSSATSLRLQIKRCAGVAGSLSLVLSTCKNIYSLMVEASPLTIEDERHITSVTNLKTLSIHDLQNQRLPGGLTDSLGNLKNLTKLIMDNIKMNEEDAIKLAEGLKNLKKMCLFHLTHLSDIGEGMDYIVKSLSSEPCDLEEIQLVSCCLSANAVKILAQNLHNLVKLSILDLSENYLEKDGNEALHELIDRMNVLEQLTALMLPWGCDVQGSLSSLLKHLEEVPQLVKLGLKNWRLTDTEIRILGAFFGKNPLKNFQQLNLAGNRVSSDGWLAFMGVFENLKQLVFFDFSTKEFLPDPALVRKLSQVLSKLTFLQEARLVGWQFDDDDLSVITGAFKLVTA
UniProt O00206, residues 24-839: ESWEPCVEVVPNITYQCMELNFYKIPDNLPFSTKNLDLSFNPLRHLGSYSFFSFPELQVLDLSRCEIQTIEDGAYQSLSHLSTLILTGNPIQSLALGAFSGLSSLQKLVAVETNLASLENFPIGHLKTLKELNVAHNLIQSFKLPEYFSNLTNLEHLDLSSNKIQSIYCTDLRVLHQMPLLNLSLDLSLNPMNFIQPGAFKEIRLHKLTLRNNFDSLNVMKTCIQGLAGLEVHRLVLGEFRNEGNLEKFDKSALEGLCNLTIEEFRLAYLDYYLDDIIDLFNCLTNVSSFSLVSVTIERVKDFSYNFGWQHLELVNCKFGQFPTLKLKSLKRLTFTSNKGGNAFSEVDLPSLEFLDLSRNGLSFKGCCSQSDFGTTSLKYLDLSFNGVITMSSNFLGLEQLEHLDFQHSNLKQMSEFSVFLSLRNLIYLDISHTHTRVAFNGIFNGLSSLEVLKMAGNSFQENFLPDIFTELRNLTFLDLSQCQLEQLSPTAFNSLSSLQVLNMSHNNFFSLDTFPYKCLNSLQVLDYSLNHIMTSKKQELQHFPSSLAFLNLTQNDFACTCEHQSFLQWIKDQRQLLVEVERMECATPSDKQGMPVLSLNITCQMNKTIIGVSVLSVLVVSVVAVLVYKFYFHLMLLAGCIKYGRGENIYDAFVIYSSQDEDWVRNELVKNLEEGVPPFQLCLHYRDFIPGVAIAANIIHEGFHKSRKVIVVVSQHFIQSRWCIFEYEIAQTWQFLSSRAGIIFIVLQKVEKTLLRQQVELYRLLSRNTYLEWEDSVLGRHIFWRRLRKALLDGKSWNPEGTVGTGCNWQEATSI

Tests used:
[1] = target: T1, GFP-IRGM (human) (UniProt A1A4Y4); test: co-IP; GFP-IRGM and Flag-tagged proteins overexpressed in HEK293T, cell lysates; NP-40 lysis buffer, protein G dynabeads, 4°C; reverse co-IPs too; for cGAS, RIG-I and TLR3 also in control siRNA or p62 siRNA transfected cells
T1 sequence: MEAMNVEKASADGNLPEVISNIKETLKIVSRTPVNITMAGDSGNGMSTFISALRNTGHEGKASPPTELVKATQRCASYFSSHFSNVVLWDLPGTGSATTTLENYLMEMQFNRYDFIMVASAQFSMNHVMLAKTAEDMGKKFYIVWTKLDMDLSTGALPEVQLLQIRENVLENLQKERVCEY

[2] = target: HA-p62 (UniProt Q13501); test: co-IP; HA-p62 and Flag-tagged RIG-I, TLR3 or cGAS in the absence and presence of GFP or GFP-IRGM, HEK293T cell lysates; p62 immunoprecipitated
[3] = target: T2, GST-IRGM (human) (UniProt A1A4Y4); test: pull-down; GST or GST-IRGM on Glutathione Sepharose beads incubated with in vitro translated [35S]-labeled Myc-tagged proteins; NETN-E buffer (50 mM Tris pH 8.0, 100 mM NaCl, 6 mM EDTA, 6 mM EGTA, 0.5% NP-40, 1 mM DTT), 2 h at 4°C; autoradiography; only the target purified
T2 sequence: T1 sequence

[4] = target: T3, Immunity Related GTPase M (IRGM), endogenous (human (endogenous in THP-1)) (UniProt A1A4Y4); test: co-IP; immunoprecipitation of endogenous IRGM and endogenous sensor proteins in THP-1 cell lysates; NP-40 lysis buffer, protein G dynabeads, 4°C
T3 sequence: T1 sequence

Substance | binding [1] | binding [4] | also measured
Flag-TLR3 (from UniProt O15455 24-904) (receptor) | binds |  | binding [2]: binds
Flag-cGAS (from UniProt Q8N884 1-522) | binds |  | 
Flag-optineurin (from UniProt Q96CV9 1-577) | no binding |  | 
Flag-p62 (from UniProt Q13501 1-440) | binds |  | 
Myc-TLR3, in vitro translated (from UniProt O15455 1-904) (receptor) |  |  | binding [3]: binds weakly
Myc-cGAS, in vitro translated (from UniProt Q8N884 1-522) |  |  | binding [3]: binds
NLRC4, endogenous (from UniProt Q9NPP4 1-1024) |  | no binding | 
TLR3, endogenous (from UniProt O15455 24-904) (receptor) |  | binds | 
TLR4, endogenous (from UniProt O00206 24-839) (receptor) |  | no binding | 
cGAS, endogenous (from UniProt Q8N884 1-522) |  | binds | 
